In PubChem BioAssay (NCI):
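Results reflect a 48-hour exposure of cells in 96-well plates to compound at five concentrations. GI50 marks 50% less growth. TGI denotes the concentration required for complete inhibition of growth.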

Tested on: NCI-H322M lung
Assay: NCI anticancer screen, dose series, 48 h

Structure (SMILES)	GI50	TGI
CCCCCCCCNC(=O)c1ccc(Cn2c(CCCC)nc3c(N)nc4ccccc4c32)cc1	3.11 µM	10.6 µM
CC(=O)Nc1nc(C)c(-c2csc(Nc3ccccc3)n2)s1	5.72 µM	18.8 µM
COc1cnc2c(c1)C(=O)c1c-2n(CCCNCC2CC2)c(=O)c2cc(F)ccc12	1.14 µM	4.54 µM
